# For some assays here: The strong results were mostly taken out for another list; the other results follow. The entries are a selection whose mix differs from that of the whole data set.
# Key:
# [1] = biological target: High affinity nerve growth factor receptor (Homo sapiens) (UniProt P04629); details: at 1 µM;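 also: each value is the mean percent inhibition of TRKA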
# [2] = biological target: BDNF/NT-3 growth factors receptor (Homo sapiens) (UniProt Q16620); details: at 0.1 µM
# [3] = biological target: BDNF/NT-3 growth factors receptor (Homo sapiens) (UniProt Q16620); details: at 1 µM
# [4] = biological target: NT-3 growth factor receptor (Homo sapiens) (UniProt Q16288); details: at 0.1 µM
# [5] = biological target: NT-3 growth factor receptor (Homo sapiens) (UniProt Q16288); details: at 1 µM
# [6] = biological target: T1, Tyrosine-protein kinase TXK (Homo sapiens) (UniProt P42681); details: at 0.1 µM
# T1 sequence (whole entry): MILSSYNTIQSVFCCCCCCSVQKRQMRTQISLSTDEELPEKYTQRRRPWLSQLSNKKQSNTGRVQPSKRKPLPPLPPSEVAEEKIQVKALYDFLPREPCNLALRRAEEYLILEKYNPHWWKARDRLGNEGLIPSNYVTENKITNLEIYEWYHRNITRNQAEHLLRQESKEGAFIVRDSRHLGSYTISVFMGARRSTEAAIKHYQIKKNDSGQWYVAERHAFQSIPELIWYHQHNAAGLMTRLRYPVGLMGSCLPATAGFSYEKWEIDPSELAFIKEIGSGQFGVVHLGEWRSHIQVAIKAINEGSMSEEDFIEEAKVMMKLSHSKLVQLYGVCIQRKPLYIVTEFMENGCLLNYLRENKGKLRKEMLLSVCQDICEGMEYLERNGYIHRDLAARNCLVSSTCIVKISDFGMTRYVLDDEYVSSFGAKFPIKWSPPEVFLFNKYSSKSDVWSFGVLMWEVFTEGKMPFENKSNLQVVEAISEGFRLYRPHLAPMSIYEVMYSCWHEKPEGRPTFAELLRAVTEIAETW
# [7] = biological target: T1, Tyrosine-protein kinase TXK (Homo sapiens); details: at 1 µM
# [8] = biological target: Non-receptor tyrosine-protein kinase TYK2 (Homo sapiens) (UniProt P29597); details: at 0.1 µM;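 also: each value is a mean of the inhibition readings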
# UniProt P29597, sequence (P29597 whole entry): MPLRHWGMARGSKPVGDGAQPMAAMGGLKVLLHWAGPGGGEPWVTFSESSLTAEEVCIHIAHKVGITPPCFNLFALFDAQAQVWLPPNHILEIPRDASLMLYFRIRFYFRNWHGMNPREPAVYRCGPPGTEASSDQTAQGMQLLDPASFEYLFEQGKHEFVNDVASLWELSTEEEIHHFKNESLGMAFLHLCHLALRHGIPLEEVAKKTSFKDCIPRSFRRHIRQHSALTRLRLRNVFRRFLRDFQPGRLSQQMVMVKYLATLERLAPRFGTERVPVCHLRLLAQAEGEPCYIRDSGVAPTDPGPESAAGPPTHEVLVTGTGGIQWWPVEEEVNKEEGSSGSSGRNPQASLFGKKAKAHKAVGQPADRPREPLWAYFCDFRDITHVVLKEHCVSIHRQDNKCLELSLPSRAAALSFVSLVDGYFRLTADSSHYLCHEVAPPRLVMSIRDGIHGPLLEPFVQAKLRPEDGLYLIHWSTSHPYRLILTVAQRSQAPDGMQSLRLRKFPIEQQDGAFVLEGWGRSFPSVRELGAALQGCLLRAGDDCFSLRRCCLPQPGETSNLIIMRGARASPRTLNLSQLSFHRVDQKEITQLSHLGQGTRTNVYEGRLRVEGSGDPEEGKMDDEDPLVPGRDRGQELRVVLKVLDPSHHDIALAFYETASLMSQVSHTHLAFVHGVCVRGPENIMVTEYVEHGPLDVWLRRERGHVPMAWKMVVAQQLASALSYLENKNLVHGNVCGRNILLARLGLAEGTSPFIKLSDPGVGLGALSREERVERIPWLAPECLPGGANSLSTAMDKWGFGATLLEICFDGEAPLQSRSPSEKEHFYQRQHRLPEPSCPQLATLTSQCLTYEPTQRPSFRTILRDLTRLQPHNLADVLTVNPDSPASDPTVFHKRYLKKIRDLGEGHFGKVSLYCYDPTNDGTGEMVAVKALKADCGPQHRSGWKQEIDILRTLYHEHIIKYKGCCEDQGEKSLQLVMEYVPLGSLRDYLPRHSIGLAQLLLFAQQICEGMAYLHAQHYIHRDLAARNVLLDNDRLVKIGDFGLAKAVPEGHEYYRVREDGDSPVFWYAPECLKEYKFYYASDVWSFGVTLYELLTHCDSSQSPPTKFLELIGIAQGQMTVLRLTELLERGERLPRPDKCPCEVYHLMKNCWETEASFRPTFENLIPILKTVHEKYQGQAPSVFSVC
# [9] = biological target: T2, Dual specificity protein kinase TTK (Homo sapiens) (UniProt P33981); details: at 1 µM;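 also: reported figures are mean TTK inhibition at 1 µM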
# T2 sequence (whole entry): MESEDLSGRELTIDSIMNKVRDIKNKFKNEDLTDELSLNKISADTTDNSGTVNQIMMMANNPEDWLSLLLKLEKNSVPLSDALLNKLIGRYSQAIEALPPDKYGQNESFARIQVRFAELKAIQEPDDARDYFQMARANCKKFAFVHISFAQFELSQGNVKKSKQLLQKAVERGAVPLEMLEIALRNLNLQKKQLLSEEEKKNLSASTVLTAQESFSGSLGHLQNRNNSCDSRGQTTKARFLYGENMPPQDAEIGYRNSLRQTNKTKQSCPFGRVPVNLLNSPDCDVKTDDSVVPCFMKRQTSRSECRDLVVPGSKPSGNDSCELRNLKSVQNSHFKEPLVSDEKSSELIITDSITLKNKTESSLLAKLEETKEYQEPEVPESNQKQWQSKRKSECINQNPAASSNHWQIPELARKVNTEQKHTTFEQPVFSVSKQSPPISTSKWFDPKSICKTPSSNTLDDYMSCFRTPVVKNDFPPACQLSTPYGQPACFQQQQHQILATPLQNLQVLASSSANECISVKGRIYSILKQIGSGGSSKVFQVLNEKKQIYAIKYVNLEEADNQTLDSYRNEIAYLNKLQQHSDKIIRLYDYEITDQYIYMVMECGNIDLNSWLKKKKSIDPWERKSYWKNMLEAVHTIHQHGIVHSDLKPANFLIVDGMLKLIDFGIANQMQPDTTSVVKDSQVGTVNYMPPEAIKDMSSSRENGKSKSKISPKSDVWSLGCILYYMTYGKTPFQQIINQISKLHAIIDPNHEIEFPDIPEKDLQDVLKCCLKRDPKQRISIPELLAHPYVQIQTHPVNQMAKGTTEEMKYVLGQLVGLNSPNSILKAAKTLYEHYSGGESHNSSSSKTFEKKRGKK
# [10] = biological target: T3, Aurora kinase A (Homo sapiens) (UniProt O14965); details: at 0.1 µM
# T3 sequence (whole entry): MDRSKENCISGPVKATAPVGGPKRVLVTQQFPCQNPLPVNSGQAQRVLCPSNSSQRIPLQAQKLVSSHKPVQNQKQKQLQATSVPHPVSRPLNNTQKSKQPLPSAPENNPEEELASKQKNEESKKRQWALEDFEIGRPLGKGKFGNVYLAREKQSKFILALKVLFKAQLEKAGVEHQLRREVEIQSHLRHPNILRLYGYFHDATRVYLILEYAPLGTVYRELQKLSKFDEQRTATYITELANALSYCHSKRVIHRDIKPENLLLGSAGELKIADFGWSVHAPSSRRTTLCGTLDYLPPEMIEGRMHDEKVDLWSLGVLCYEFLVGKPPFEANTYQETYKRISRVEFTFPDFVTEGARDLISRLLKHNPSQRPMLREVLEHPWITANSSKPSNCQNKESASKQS
# [11] = biological target: T3, Aurora kinase A (Homo sapiens); details: at 1 µM
# [12] = biological target: Aurora kinase B (Homo sapiens) (UniProt Q96GD4); details: at 0.1 µM
# [13] = biological target: Aurora kinase B (Homo sapiens) (UniProt Q96GD4); details: at 1 µM
# [14] = biological target: T4, Aurora kinase C (Homo sapiens) (UniProt Q9UQB9); details: at 0.1 µM
# T4 sequence (whole entry): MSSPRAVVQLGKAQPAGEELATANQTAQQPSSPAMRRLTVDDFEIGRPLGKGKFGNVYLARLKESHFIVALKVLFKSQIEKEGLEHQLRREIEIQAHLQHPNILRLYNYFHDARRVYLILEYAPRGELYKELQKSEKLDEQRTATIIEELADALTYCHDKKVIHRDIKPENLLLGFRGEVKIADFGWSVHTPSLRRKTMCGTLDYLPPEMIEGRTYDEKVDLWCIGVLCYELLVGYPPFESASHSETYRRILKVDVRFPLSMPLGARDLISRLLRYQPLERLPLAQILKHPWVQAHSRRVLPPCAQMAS
# [15] = biological target: T4, Aurora kinase C (Homo sapiens); details: at 1 µM
# [16] = biological target: Serine/threonine-protein kinase 10 (Homo sapiens) (UniProt O94804); details: at 0.1 µM
# UniProt O94804, sequence (O94804 whole entry, looked up): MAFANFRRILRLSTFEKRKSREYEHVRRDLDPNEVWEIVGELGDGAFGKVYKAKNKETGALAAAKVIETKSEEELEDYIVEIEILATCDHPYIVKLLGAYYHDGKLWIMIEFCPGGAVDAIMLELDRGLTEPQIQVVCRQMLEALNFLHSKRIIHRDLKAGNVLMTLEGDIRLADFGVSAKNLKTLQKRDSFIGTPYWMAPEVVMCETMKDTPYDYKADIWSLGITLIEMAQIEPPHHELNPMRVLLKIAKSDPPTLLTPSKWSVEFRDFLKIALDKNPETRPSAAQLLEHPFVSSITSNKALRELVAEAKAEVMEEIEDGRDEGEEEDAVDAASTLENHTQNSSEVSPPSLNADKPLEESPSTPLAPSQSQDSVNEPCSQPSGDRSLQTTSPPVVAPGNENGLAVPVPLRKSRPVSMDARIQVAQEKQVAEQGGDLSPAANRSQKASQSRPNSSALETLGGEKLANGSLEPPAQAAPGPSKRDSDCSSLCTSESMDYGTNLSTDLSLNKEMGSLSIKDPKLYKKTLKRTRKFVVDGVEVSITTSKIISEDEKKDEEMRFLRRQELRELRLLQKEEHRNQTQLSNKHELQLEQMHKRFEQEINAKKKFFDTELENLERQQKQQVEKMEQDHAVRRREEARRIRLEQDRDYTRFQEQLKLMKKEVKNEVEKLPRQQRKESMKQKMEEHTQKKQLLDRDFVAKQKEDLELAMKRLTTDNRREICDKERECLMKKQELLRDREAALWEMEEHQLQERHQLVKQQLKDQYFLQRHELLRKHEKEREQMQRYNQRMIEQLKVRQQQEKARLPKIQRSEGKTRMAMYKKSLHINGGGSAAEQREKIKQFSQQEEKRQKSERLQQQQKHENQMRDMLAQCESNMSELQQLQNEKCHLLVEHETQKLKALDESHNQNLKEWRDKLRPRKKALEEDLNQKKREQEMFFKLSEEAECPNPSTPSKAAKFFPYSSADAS
# [17] = biological target: Serine/threonine-protein kinase 10 (Homo sapiens) (UniProt O94804); details: at 1 µM
# [18] = biological target: T5, Mitogen-activated protein kinase kinase kinase kinase 2 (Homo sapiens) (UniProt Q12851); details: at 0.1 µM
# T5 sequence (whole entry): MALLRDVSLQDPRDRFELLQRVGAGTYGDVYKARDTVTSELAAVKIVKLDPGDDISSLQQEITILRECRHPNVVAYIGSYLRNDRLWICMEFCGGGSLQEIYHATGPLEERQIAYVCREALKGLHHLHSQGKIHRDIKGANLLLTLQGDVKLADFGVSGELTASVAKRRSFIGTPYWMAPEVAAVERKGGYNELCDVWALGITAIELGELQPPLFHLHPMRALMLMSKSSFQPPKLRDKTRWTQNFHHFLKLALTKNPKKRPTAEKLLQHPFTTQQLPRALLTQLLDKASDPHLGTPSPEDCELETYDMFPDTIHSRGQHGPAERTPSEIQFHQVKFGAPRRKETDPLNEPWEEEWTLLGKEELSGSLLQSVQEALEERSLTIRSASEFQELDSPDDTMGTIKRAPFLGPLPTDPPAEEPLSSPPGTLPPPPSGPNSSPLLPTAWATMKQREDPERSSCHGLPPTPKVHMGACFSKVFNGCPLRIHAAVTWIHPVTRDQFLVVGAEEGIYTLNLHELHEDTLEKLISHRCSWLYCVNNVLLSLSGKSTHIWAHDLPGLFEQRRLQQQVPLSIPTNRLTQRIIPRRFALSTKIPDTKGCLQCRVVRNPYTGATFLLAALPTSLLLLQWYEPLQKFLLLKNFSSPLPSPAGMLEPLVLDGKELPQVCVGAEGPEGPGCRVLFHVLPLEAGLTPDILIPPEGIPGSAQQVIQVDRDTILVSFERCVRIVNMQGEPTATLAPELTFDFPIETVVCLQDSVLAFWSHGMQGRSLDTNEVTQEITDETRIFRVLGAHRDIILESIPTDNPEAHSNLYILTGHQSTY
# [19] = biological target: T5, Mitogen-activated protein kinase kinase kinase kinase 2 (Homo sapiens); details: at 1 µM
# [20] = biological target: Mitogen-activated protein kinase kinase kinase kinase 4 (Homo sapiens) (UniProt O95819); details: at 0.1 µM
# UniProt O95819, sequence (O95819 whole entry, looked up): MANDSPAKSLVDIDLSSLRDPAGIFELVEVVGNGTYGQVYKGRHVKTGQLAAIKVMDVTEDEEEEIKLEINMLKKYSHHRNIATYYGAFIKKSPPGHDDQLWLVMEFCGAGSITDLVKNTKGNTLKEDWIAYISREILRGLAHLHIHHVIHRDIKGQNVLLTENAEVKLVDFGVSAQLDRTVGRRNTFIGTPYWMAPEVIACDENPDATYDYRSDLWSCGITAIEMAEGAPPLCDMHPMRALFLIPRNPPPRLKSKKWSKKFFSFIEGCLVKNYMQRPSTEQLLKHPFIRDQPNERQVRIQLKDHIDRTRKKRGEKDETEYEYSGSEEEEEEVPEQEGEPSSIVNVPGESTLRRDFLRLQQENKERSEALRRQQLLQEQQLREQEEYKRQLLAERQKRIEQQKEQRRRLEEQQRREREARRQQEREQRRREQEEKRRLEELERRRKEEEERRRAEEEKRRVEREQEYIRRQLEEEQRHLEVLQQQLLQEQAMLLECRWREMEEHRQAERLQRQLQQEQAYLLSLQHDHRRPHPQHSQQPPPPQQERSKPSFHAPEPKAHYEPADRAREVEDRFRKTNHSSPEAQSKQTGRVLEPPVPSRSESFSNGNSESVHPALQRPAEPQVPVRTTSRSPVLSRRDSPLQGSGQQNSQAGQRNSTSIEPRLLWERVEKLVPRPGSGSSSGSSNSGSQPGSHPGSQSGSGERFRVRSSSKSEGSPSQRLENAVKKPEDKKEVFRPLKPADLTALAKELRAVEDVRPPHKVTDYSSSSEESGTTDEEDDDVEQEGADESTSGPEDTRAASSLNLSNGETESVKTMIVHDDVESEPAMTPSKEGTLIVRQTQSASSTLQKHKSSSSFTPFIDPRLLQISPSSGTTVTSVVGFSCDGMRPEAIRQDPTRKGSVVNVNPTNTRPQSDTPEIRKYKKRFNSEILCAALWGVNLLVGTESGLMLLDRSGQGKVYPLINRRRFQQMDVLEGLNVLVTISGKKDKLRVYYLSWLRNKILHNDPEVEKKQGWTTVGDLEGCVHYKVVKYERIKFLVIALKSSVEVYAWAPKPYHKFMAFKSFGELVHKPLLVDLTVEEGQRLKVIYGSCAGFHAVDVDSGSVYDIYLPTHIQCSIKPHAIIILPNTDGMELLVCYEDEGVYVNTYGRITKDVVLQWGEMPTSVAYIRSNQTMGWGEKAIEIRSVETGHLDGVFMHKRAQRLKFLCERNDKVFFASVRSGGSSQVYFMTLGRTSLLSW
# UniProt P04629, sequence (P04629 whole entry, looked up): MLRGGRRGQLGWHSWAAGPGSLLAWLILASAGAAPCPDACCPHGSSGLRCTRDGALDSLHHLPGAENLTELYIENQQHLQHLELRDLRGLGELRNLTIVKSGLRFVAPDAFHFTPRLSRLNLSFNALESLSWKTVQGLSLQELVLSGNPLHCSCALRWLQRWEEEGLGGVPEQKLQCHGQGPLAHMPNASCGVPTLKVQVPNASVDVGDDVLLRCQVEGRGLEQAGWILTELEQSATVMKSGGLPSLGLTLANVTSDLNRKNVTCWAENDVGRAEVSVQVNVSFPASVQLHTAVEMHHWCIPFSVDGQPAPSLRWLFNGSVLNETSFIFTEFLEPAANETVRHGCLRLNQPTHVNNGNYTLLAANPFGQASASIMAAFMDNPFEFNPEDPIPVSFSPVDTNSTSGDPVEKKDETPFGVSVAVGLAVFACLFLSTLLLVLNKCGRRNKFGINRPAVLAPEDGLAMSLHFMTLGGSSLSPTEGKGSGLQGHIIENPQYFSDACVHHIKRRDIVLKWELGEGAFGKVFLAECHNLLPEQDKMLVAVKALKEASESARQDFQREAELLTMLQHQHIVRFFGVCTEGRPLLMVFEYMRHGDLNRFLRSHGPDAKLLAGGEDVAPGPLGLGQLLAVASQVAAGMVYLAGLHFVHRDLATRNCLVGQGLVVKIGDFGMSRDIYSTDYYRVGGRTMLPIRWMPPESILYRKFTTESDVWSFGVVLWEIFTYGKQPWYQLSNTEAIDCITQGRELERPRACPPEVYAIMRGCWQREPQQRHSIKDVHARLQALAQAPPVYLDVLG
# UniProt Q16620, sequence (Q16620 whole entry, looked up): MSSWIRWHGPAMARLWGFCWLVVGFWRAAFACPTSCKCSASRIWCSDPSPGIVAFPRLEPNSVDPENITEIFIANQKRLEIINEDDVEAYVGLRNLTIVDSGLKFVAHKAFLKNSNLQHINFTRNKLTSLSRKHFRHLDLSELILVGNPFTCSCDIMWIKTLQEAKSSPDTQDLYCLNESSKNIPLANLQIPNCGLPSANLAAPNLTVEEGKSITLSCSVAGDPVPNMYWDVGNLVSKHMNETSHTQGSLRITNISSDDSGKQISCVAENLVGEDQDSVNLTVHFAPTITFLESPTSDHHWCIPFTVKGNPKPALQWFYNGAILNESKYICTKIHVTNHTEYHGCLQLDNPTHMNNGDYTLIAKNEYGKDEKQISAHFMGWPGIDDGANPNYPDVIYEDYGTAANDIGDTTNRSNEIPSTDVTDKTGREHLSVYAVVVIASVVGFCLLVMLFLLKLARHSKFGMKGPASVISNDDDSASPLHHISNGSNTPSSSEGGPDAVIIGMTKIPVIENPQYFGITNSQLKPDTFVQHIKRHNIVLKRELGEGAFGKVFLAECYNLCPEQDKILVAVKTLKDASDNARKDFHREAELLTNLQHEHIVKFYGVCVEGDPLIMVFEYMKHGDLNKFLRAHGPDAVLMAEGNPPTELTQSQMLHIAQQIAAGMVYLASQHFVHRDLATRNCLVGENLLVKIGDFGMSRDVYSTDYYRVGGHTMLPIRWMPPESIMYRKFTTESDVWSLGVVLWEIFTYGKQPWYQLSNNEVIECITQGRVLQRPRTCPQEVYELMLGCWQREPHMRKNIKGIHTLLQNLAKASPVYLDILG
Structure (SMILES),inhibition [1] [%],inhibition [2] [%],inhibition [3] [%],inhibition [4] [%],inhibition [5] [%],inhibition [6] [%],inhibition [7] [%],inhibition [8] [%],inhibition [9] [%],inhibition [10] [%],inhibition [11] [%],inhibition [12] [%],inhibition [13] [%],inhibition [14] [%],inhibition [15] [%],inhibition [16] [%],inhibition [17] [%],inhibition [18] [%],inhibition [19] [%],inhibition [20] [%]
CS(=O)(=O)c1ccc(Oc2nccc(-c3c(-c4ccc(F)cc4)ncn3C3CCNCC3)n2)cc1,0.39,3,3.47,2.45,2.16,-1.79,1.47,-0.68,9.56,3.35,3.95,1.11,4.21,-0.52,1.87,7.57,8.42,0.86,2.41,3.9
CC(C)(C)c1ccc(Oc2nccc(-c3c(-c4ccc(F)cc4)ncn3C3CCNCC3)n2)cc1,6.54,3.43,4.77,2.36,3.58,-0.65,2.64,-0.01,13.5,2.69,3.71,5.11,6.89,-0.85,4.1,5.31,8.19,3.38,25.9,2.74
O=C1NC(=O)C(c2cccc([N+](=O)[O-])c2)=C1Nc1cc(Cl)c(O)c(Cl)c1,-0.43,1.25,0.97,1.51,1.33,-2,0.63,-1.44,3.3,4.32,,2.21,3.34,1.93,6.2,3.53,13.6,-6.79,5.47,2.66
Fc1ccc(-c2ncn(C3CCNCC3)c2-c2ccnc(Oc3cccc(C(F)(F)F)c3)n2)cc1,0.88,2.5,2.43,1.67,2.38,-0.4,5.97,-3.63,14.7,5.21,5.75,4.03,5.56,0.56,3.96,9.92,11.9,2,4.65,
Fc1ccc(-c2ncn(C3CCNCC3)c2-c2ccnc(Oc3ccc(Cl)cc3)n2)cc1,3.02,3.05,0.87,0.66,0.67,1.72,1.21,-0.81,4.46,0.56,0.17,0.57,2.45,-0.39,-1.12,1.72,3.91,1.02,5.84,0.76
COc1ccccc1Oc1nccc(-c2c(-c3ccc(F)cc3)ncn2C2CCNCC2)n1,2.78,4.41,4.48,3.33,2.6,1.24,7.31,-4.38,16,4.52,4.15,5.64,7.08,3.7,8.68,6.7,9.79,1.58,9.76,7.09
Cc1cccc(Oc2nccc(-c3c(-c4ccc(F)cc4)ncn3C3CCNCC3)n2)c1C,2.44,3.62,3,2.66,3.33,-1.3,3.02,-2.76,10.2,3.78,1.24,3.65,2.08,0.24,3.19,5.07,6.96,2.15,6.26,5.29
O=C1NC(=O)C(c2ccccc2Cl)=C1Nc1cc(Cl)c(O)c(Cl)c1,2.64,2.11,3.03,2.93,6.27,3.36,5.83,-4.14,14.4,1.59,11.8,4.77,9.34,4.54,-3.03,4.78,19.1,-0.01,2.7,2.37
NC(=O)CCc1ccccc1Oc1nccc(-c2c(-c3ccc(F)cc3)ncn2C2CCNCC2)n1,1.91,-1.77,-0.62,-0.36,0.35,-2.51,0.04,-0.18,1.46,-3.22,-2.06,-1.43,5.06,-4.59,-1.84,0.41,3.67,2.43,2.47,0.21
O=C1NC(=O)C(c2ccccc2)=C1Nc1ccccc1,0.95,4.13,5.99,2.58,6.28,3.78,7.86,-3.44,9.02,2.73,10.8,1.6,3.65,1.24,-1.21,7.59,32.4,2.02,7.67,10.1
COc1ccccc1C1=C(Nc2ccccc2)C(=O)NC1=O,2.37,1.68,6.04,2.18,5.53,2.66,5.43,-2.23,9.73,2.93,8.25,4.06,5.05,0.97,-1.48,33.3,73.2,1.42,13.3,5.12
Fc1ccc(Oc2nccc(-c3c(-c4ccc(F)cc4)ncn3C3CCNCC3)n2)cc1,6.25,2.64,3.55,3.07,2.12,4.26,0.51,-3.11,7.87,-1.57,-3.14,-2.42,-1.44,-4.29,-2.03,6.94,7.45,-0.24,0.81,4.73
O=C(O)c1ccc(Oc2nccc(-c3c(-c4ccc(F)cc4)ncn3C3CCNCC3)n2)cc1,6.32,3.29,3.09,1.7,2.29,7.4,5.95,-2.36,9.66,2.47,3.12,2.6,4.72,0.74,2,6.8,8.19,-1.44,1.57,3.08
Fc1ccc(-c2ncn(C3CCNCC3)c2-c2ccnc(Oc3cccc(F)c3)n2)cc1,8.01,4.01,4.47,3.57,6.8,7.16,7.81,-5.29,7.86,3.61,4.59,4.46,4.6,2.13,1.42,8.49,9.09,-0.26,3.59,4.5
